# This is one part of the list.
# Key:
# Assay in all cases: glycan array binding signal (z-score within array); higher = stronger binding
# Conditions in all cases: glycan notation: IUPAC condensed, linker removed
# [1] = target: Gal(b1-3)Gal(b1-4)GlcNAc(b1-2)Man(a1-3)[Gal(b1-3)Gal(b1-4)GlcNAc(b1-2)Man(a1-6)]Man(b1-4)GlcNAc(b1-4)GlcNAc
# Outline: (§1)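 Columns mapping to the same glycan were averaged after glycan names were converted to IUPAC-condensed notation. The data come from 3228 arrays in the Consortium for Functional Glycomics database, limited to those with an available protein sequence. Binding is reported as a within-array Z-score averaged across arrays of one protein sequence and across linkers.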
# [2] = target: Gal(b1-3)GalNAc
# Outline: as §1
# [3] = target: Gal(b1-3)GalNAc(a1-3)[Fuc(a1-2)]Gal(b1-4)Glc
# Outline: as §1
# [4] = target: Gal(b1-3)GalNAc(a1-3)[Fuc(a1-2)]Gal(b1-4)GlcNAc
# Outline: as §1
# [5] = target: Gal(b1-3)GalNAc(b1-3)Gal
# Outline: as §1
# [6] = target: Gal(b1-3)GalNAc(b1-3)Gal(a1-4)Gal(b1-4)Glc
# Outline: as §1
# [7] = target: Gal(b1-3)GalNAc(b1-4)Gal(b1-4)Glc
# Outline: as §1
# [8] = target: Gal(b1-3)GalNAc(b1-4)[Neu5Ac(a2-3)]Gal(b1-4)Glc
# Outline: as §1
# [9] = target: Gal(b1-3)GlcNAc
# Outline: as §1
# [10] = target: Gal(b1-3)GlcNAc(a1-3)Gal(b1-4)GlcNAc
# Outline: as §1
# [11] = target: Gal(b1-3)GlcNAc(a1-6)Gal(b1-4)GlcNAc
# Outline: as §1
# [12] = target: Gal(b1-3)GlcNAc(b1-2)Man
# Outline: as §1
# [13] = target: Gal(b1-3)GlcNAc(b1-2)Man(a1-3)[Gal(b1-3)GlcNAc(b1-2)Man(a1-6)]Man(b1-4)GlcNAc(b1-4)GlcNAc
# Outline: as §1
# [14] = target: Gal(b1-3)GlcNAc(b1-2)Man(a1-3)[Gal(b1-3)GlcNAc(b1-2)Man(a1-6)]Man(b1-4)GlcNAc(b1-4)[Fuc(a1-6)]GlcNAc
# Outline: as §1
# [15] = target: Gal(b1-3)GlcNAc(b1-2)Man(a1-3)[GlcNAc(b1-4)][Gal(b1-3)GlcNAc(b1-2)Man(a1-6)]Man(b1-4)GlcNAc(b1-4)GlcNAc
# Outline: as §1
# [16] = target: Gal(b1-3)GlcNAc(b1-2)[Gal(b1-3)GlcNAc(b1-6)]Man(a1-6)[Gal(b1-3)GlcNAc(b1-2)Man(a1-3)]Man(b1-4)GlcNAc(b1-4)GlcNAc
# Outline: as §1
# [17] = target: Gal(b1-3)GlcNAc(b1-3)Gal(b1-3)GlcNAc
# Outline: as §1
# [18] = target: Gal(b1-3)GlcNAc(b1-3)Gal(b1-4)Glc
# Outline: as §1
# [19] = target: Gal(b1-3)GlcNAc(b1-3)Gal(b1-4)GlcNAc
# Outline: as §1
# [20] = target: Gal(b1-3)GlcNAc(b1-3)Gal(b1-4)GlcNAc(b1-2)Man(a1-3)[Gal(b1-3)GlcNAc(b1-3)Gal(b1-4)GlcNAc(b1-2)Man(a1-6)]Man(b1-4)GlcNAc(b1-4)GlcNAc
# Outline: as §1
# [21] = target: Gal(b1-3)GlcNAc(b1-3)Gal(b1-4)GlcNAc(b1-2)[Gal(b1-3)GlcNAc(b1-3)Gal(b1-4)GlcNAc(b1-6)]Man(a1-6)[Gal(b1-3)GlcNAc(b1-3)Gal(b1-4)GlcNAc(b1-2)Man(a1-3)]Man(b1-4)GlcNAc(b1-4)[Fuc(a1-6)]GlcNAc
# Outline: as §1
# [22] = target: Gal(b1-3)GlcNAc(b1-3)Gal(b1-4)GlcNAc(b1-3)Gal(b1-4)GlcNAc(b1-2)[Gal(b1-3)GlcNAc(b1-3)Gal(b1-4)GlcNAc(b1-3)Gal(b1-4)GlcNAc(b1-6)]Man(a1-6)[Gal(b1-3)GlcNAc(b1-3)Gal(b1-4)GlcNAc(b1-3)Gal(b1-4)GlcNAc(b1-2)Man(a1-3)]Man(b1-4)GlcNAc(b1-4)[Fuc(a1-6)]GlcNAc
# Outline: as §1
# [23] = target: Gal(b1-3)GlcNAc(b1-3)Gal(b1-4)GlcNAc(b1-6)[Gal(b1-3)GlcNAc(b1-3)]Gal(b1-4)Glc
# Outline: as §1
# [24] = target: Gal(b1-3)GlcNAc(b1-3)Gal(b1-4)[Fuc(a1-3)]GlcNAc
# Outline: as §1
# [25] = target: Gal(b1-3)GlcNAc(b1-3)Gal(b1-4)[Fuc(a1-3)]GlcNAc(b1-6)[Gal(b1-3)GlcNAc(b1-3)]Gal(b1-4)Glc
# Outline: as §1
# [26] = target: Gal(b1-3)GlcNAc(b1-3)GalNAc
# Outline: as §1
# [27] = target: Gal(b1-3)GlcNAc(b1-6)Gal(b1-4)GlcNAc
# Outline: as §1
# [28] = target: Gal(b1-3)GlcNAc(b1-6)GalNAc
# Outline: as §1
# [29] = target: Gal(b1-3)GlcNAc(b1-6)[Gal(b1-3)]GalNAc
# Outline: as §1
# [30] = target: Gal(b1-3)GlcNAc6S
# Outline: as §1
# [31] = target: Gal(b1-3)[Fuc(a1-4)]GlcNAc
# Outline: as §1
# [32] = target: Gal(b1-3)[Fuc(a1-4)]GlcNAc(b1-2)Man
# Outline: as §1
# [33] = target: Gal(b1-3)[Fuc(a1-4)]GlcNAc(b1-2)Man(a1-3)[Gal(b1-3)[Fuc(a1-4)]GlcNAc(b1-2)Man(a1-6)]Man(b1-4)GlcNAc(b1-4)GlcNAc
# Outline: as §1
# [34] = target: Gal(b1-3)[Fuc(a1-4)]GlcNAc(b1-2)Man(a1-3)[Gal(b1-3)[Fuc(a1-4)]GlcNAc(b1-2)Man(a1-6)]Man(b1-4)GlcNAc(b1-4)[Fuc(a1-6)]GlcNAc
# Outline: as §1
# [35] = target: Gal(b1-3)[Fuc(a1-4)]GlcNAc(b1-3)Gal(b1-3)[Fuc(a1-4)]GlcNAc
# Outline: as §1
# [36] = target: Gal(b1-3)[Fuc(a1-4)]GlcNAc(b1-3)Gal(b1-4)GlcNAc
# Outline: as §1
# [37] = target: Gal(b1-3)[Fuc(a1-4)]GlcNAc(b1-3)Gal(b1-4)[Fuc(a1-3)]GlcNAc
# Outline: as §1
# [38] = target: Gal(b1-3)[Fuc(a1-4)]GlcNAc(b1-6)GalNAc
# Outline: as §1
# [39] = target: Gal(b1-3)[GlcNAc(b1-6)]GalNAc
# Outline: as §1
# [40] = target: Gal(b1-3)[Neu5Ac(a2-6)]GalNAc
# Outline: as §1
# [41] = target: Gal(b1-3)[Neu5Ac(a2-6)]GlcNAc(b1-4)Gal(b1-4)Glc
# Outline: as §1
# [42] = target: Gal(b1-3)[Neu5Ac(a2-6)]GlcNAc(b1-6)Gal(b1-4)Glc
# Outline: as §1
# [43] = target: Gal(b1-3)[Neu5Ac(b2-6)]GalNAc
# Outline: as §1
# [44] = target: Gal(b1-4)Gal
# Outline: as §1
# [45] = target: Gal(b1-4)GalNAc(a1-3)[Fuc(a1-2)]Gal(b1-4)GlcNAc
# Outline: as §1
binder,measurement,setting,value
"GNA (Galanthus nivalis), P30617 (protein) MAKASLLILAAIFLGVITPSCLSDNILYSGETLSTGEFLNYGSFVFIMQEDCNLVLYDVDKPIWATNTGGLSRSCFLSMQTDGNLVVYNPSNKPIWASNTGGQNGNYVCILQKDRNVVIYGTDRWATGTHTGLVGIPASPPSEKYPTAGKIKLVTAK",glycan array binding signal (z-score),[1],0.171
same,glycan array binding signal (z-score),[2],-0.114
same,glycan array binding signal (z-score),[3],-0.11
same,glycan array binding signal (z-score),[4],-0.213
same,glycan array binding signal (z-score),[5],-0.19
same,glycan array binding signal (z-score),[6],-0.232
same,glycan array binding signal (z-score),[7],-0.161
same,glycan array binding signal (z-score),[8],-0.218
same,glycan array binding signal (z-score),[9],-0.181
same,glycan array binding signal (z-score),[10],-0.175
same,glycan array binding signal (z-score),[11],-0.163
same,glycan array binding signal (z-score),[12],-0.149
same,glycan array binding signal (z-score),[13],0.173
same,glycan array binding signal (z-score),[14],-0.042
same,glycan array binding signal (z-score),[15],0.24
same,glycan array binding signal (z-score),[16],0.12
same,glycan array binding signal (z-score),[17],-0.242
same,glycan array binding signal (z-score),[18],-0.204
same,glycan array binding signal (z-score),[19],-0.197
same,glycan array binding signal (z-score),[20],0.19
same,glycan array binding signal (z-score),[21],1.35
same,glycan array binding signal (z-score),[22],1.3
same,glycan array binding signal (z-score),[23],-0.18
same,glycan array binding signal (z-score),[24],-0.166
same,glycan array binding signal (z-score),[25],-0.151
same,glycan array binding signal (z-score),[26],-0.163
same,glycan array binding signal (z-score),[27],-0.18
same,glycan array binding signal (z-score),[28],-0.15
same,glycan array binding signal (z-score),[29],-0.09
same,glycan array binding signal (z-score),[30],-0.168
same,glycan array binding signal (z-score),[31],-0.169
same,glycan array binding signal (z-score),[32],-0.156
same,glycan array binding signal (z-score),[33],0.074
same,glycan array binding signal (z-score),[34],0.912
same,glycan array binding signal (z-score),[35],-0.114
same,glycan array binding signal (z-score),[36],-0.366
same,glycan array binding signal (z-score),[37],-0.257
same,glycan array binding signal (z-score),[38],-0.1
same,glycan array binding signal (z-score),[39],-0.166
same,glycan array binding signal (z-score),[40],-0.177
same,glycan array binding signal (z-score),[41],-0.195
same,glycan array binding signal (z-score),[42],-0.117
same,glycan array binding signal (z-score),[43],-0.139
same,glycan array binding signal (z-score),[44],-0.161
same,glycan array binding signal (z-score),[45],-0.192

# From the supplement of paper PMC8728848
